Source: publication PMC4585734
These are yes or no findings as the source states them, for the method shown. In cells and extracts the contact can be indirect. Some results given as binding are weak or reduced against the parent protein; the word gives no strength. For part of these data: Tags and fused reporters may be left off the sequences shown.

Legend:
[1] = target: endogenous RBM45 (HEK293) (human (endogenous in HEK293)) (UniProt Q8IUH3); assay: cross-linking; DSS treatment of HEK293 and SK-N-SH cells, endogenous RBM45 (Supplementary Fig. S2d)
[2] = target: T1, FLAG-tagged RBM45 (full-length FLAG-RBM45) (human) (UniProt Q8IUH3); assay: co-IP; FLAG-RBM45 expressed in HEK293; whole cell lysate; IP with FLAG antibody or RBM45 C-terminal antibody; immunoblot with antibody against an internal RBM45 epitope (216-265)
T1 sequence: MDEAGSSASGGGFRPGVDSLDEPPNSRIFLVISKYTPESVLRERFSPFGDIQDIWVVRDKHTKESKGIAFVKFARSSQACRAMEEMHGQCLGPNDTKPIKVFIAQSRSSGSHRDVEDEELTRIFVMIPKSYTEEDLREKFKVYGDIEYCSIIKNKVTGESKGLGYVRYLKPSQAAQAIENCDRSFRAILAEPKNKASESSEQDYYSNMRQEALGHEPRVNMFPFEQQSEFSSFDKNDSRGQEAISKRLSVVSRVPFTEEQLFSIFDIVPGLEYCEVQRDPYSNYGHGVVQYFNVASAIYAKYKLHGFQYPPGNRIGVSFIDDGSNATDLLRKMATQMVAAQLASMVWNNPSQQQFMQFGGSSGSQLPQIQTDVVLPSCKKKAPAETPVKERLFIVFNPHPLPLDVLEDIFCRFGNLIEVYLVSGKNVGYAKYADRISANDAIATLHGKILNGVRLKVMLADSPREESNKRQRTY

[3] = target: T1, FLAG-tagged RBM45 (full-length FLAG-RBM45) (human); assay: co-IP; FLAG-RBM45 and untagged rRBM45 co-expressed in HEK293; nuclear or cytoplasmic fraction; FLAG IP; KCl of the cytoplasmic fraction adjusted to 430 mM
[4] = target: endogenous RBM45 (SK-N-SH) (human (endogenous in SK-N-SH)) (UniProt Q8IUH3); assay: cross-linking; DSS treatment of HEK293 and SK-N-SH cells, endogenous RBM45 (Supplementary Fig. S2d)
[5] = target: T1, FLAG-tagged RBM45 (full-length FLAG-RBM45) (human); assay: co-IP; HA-RBM45 constructs transfected into HEK293 stably expressing full-length FLAG-RBM45; FLAG-IP; immunoblot with HA antibody
[6] = target: HA-RBM45 deletion construct D4 (Δ286–318) (human) (UniProt Q8IUH3); assay: cross-linking; in vivo DSS cross-linking (1 mM DSS for 10 minutes, room temperature, PBS) of HEK293 expressing HA-RBM45 constructs; SDS-PAGE and immunoblot
[7] = target: HA-RBM45 deletion construct D5 (Δ258–318) (human) (UniProt Q8IUH3); assay: as above
[8] = target: HA-RBM45 deletion construct D3 (Δ258–279) (human) (UniProt Q8IUH3); assay: as above

B1: endogenous RBM45 (HEK293) (protein, UniProt Q8IUH3-3 1-474)
chain: MDEAGSSASGGGFRPGVDSLDEPPNSRIFLVISKYTPESVLRERFSPFGDIQDIWVVRDKHTKESKGIAFVKFARSSQACRAMEEMHGQCLGPNDTKPIKVFIAQSRSSGSHRDVEDEELTRIFVMIPKSYTEEDLREKFKVYGDIEYCSIIKNKVTGESKGLGYVRYLKPSQAAQAIENCDRSFRAILAEPKNKASESSEQDYYSNMRQEALGHEPRVNMFPFEQQSEFSSFDKNDSRGQEAISKRLSVVSRVPFTEEQLFSIFDIVPGLEYCEVQRDPYSNYGHGVVQYFNVASAIYAKYKLHGFQYPPGNRIGVSFIDDGSNATDLLRKMATQMVAAQLASMVWNNPSQQQFMQFGGSSGSQLPQIQTDVVLPSCKKKAPAETPVKERLFIVFNPHPLPLDVLEDIFCRFGNLIEVYLVSGKNVGYAKYADRISANDAIATLHGKILNGVRLKVMLADSPREESNKRQRTY
- binding [1]: binds
- binding [2]: binds

B2: recombinant untagged-RBM45 (protein, UniProt Q8IUH3-3 1-474)
chain: MDEAGSSASGGGFRPGVDSLDEPPNSRIFLVISKYTPESVLRERFSPFGDIQDIWVVRDKHTKESKGIAFVKFARSSQACRAMEEMHGQCLGPNDTKPIKVFIAQSRSSGSHRDVEDEELTRIFVMIPKSYTEEDLREKFKVYGDIEYCSIIKNKVTGESKGLGYVRYLKPSQAAQAIENCDRSFRAILAEPKNKASESSEQDYYSNMRQEALGHEPRVNMFPFEQQSEFSSFDKNDSRGQEAISKRLSVVSRVPFTEEQLFSIFDIVPGLEYCEVQRDPYSNYGHGVVQYFNVASAIYAKYKLHGFQYPPGNRIGVSFIDDGSNATDLLRKMATQMVAAQLASMVWNNPSQQQFMQFGGSSGSQLPQIQTDVVLPSCKKKAPAETPVKERLFIVFNPHPLPLDVLEDIFCRFGNLIEVYLVSGKNVGYAKYADRISANDAIATLHGKILNGVRLKVMLADSPREESNKRQRTY
- binding [3]: binds

B3: endogenous RBM45 (SK-N-SH) (protein, UniProt Q8IUH3-3 1-474)
chain: MDEAGSSASGGGFRPGVDSLDEPPNSRIFLVISKYTPESVLRERFSPFGDIQDIWVVRDKHTKESKGIAFVKFARSSQACRAMEEMHGQCLGPNDTKPIKVFIAQSRSSGSHRDVEDEELTRIFVMIPKSYTEEDLREKFKVYGDIEYCSIIKNKVTGESKGLGYVRYLKPSQAAQAIENCDRSFRAILAEPKNKASESSEQDYYSNMRQEALGHEPRVNMFPFEQQSEFSSFDKNDSRGQEAISKRLSVVSRVPFTEEQLFSIFDIVPGLEYCEVQRDPYSNYGHGVVQYFNVASAIYAKYKLHGFQYPPGNRIGVSFIDDGSNATDLLRKMATQMVAAQLASMVWNNPSQQQFMQFGGSSGSQLPQIQTDVVLPSCKKKAPAETPVKERLFIVFNPHPLPLDVLEDIFCRFGNLIEVYLVSGKNVGYAKYADRISANDAIATLHGKILNGVRLKVMLADSPREESNKRQRTY
- binding [4]: binds

B4: HA-tagged full-length RBM45 (protein, UniProt Q8IUH3-3 1-474)
chain: MDEAGSSASGGGFRPGVDSLDEPPNSRIFLVISKYTPESVLRERFSPFGDIQDIWVVRDKHTKESKGIAFVKFARSSQACRAMEEMHGQCLGPNDTKPIKVFIAQSRSSGSHRDVEDEELTRIFVMIPKSYTEEDLREKFKVYGDIEYCSIIKNKVTGESKGLGYVRYLKPSQAAQAIENCDRSFRAILAEPKNKASESSEQDYYSNMRQEALGHEPRVNMFPFEQQSEFSSFDKNDSRGQEAISKRLSVVSRVPFTEEQLFSIFDIVPGLEYCEVQRDPYSNYGHGVVQYFNVASAIYAKYKLHGFQYPPGNRIGVSFIDDGSNATDLLRKMATQMVAAQLASMVWNNPSQQQFMQFGGSSGSQLPQIQTDVVLPSCKKKAPAETPVKERLFIVFNPHPLPLDVLEDIFCRFGNLIEVYLVSGKNVGYAKYADRISANDAIATLHGKILNGVRLKVMLADSPREESNKRQRTY
- binding [5]: binds

B5: HA-RBM45 deletion construct D1 (Δ212–216) (protein, UniProt Q8IUH3-3)
chain: MDEAGSSASGGGFRPGVDSLDEPPNSRIFLVISKYTPESVLRERFSPFGDIQDIWVVRDKHTKESKGIAFVKFARSSQACRAMEEMHGQCLGPNDTKPIKVFIAQSRSSGSHRDVEDEELTRIFVMIPKSYTEEDLREKFKVYGDIEYCSIIKNKVTGESKGLGYVRYLKPSQAAQAIENCDRSFRAILAEPKNKASESSEQDYYSNMRQEPRVNMFPFEQQSEFSSFDKNDSRGQEAISKRLSVVSRVPFTEEQLFSIFDIVPGLEYCEVQRDPYSNYGHGVVQYFNVASAIYAKYKLHGFQYPPGNRIGVSFIDDGSNATDLLRKMATQMVAAQLASMVWNNPSQQQFMQFGGSSGSQLPQIQTDVVLPSCKKKAPAETPVKERLFIVFNPHPLPLDVLEDIFCRFGNLIEVYLVSGKNVGYAKYADRISANDAIATLHGKILNGVRLKVMLADSPREESNKRQRTY
- binding [5]: binds

B6: HA-RBM45 deletion construct D2 (Δ230–234) (protein, UniProt Q8IUH3-3)
chain: MDEAGSSASGGGFRPGVDSLDEPPNSRIFLVISKYTPESVLRERFSPFGDIQDIWVVRDKHTKESKGIAFVKFARSSQACRAMEEMHGQCLGPNDTKPIKVFIAQSRSSGSHRDVEDEELTRIFVMIPKSYTEEDLREKFKVYGDIEYCSIIKNKVTGESKGLGYVRYLKPSQAAQAIENCDRSFRAILAEPKNKASESSEQDYYSNMRQEALGHEPRVNMFPFEQQSEKNDSRGQEAISKRLSVVSRVPFTEEQLFSIFDIVPGLEYCEVQRDPYSNYGHGVVQYFNVASAIYAKYKLHGFQYPPGNRIGVSFIDDGSNATDLLRKMATQMVAAQLASMVWNNPSQQQFMQFGGSSGSQLPQIQTDVVLPSCKKKAPAETPVKERLFIVFNPHPLPLDVLEDIFCRFGNLIEVYLVSGKNVGYAKYADRISANDAIATLHGKILNGVRLKVMLADSPREESNKRQRTY
- binding [5]: binds

B7: HA-RBM45 deletion construct D4 (Δ286–318) (protein, UniProt Q8IUH3-3)
chain: MDEAGSSASGGGFRPGVDSLDEPPNSRIFLVISKYTPESVLRERFSPFGDIQDIWVVRDKHTKESKGIAFVKFARSSQACRAMEEMHGQCLGPNDTKPIKVFIAQSRSSGSHRDVEDEELTRIFVMIPKSYTEEDLREKFKVYGDIEYCSIIKNKVTGESKGLGYVRYLKPSQAAQAIENCDRSFRAILAEPKNKASESSEQDYYSNMRQEALGHEPRVNMFPFEQQSEFSSFDKNDSRGQEAISKRLSVVSRVPFTEEQLFSIFDIVPGLEYCEVQRDPYSNYGFIDDGSNATDLLRKMATQMVAAQLASMVWNNPSQQQFMQFGGSSGSQLPQIQTDVVLPSCKKKAPAETPVKERLFIVFNPHPLPLDVLEDIFCRFGNLIEVYLVSGKNVGYAKYADRISANDAIATLHGKILNGVRLKVMLADSPREESNKRQRTY
- binding [5]: no binding
- binding [6]: no binding

B8: HA-RBM45 deletion construct D5 (Δ258–318) (protein, UniProt Q8IUH3-3)
chain: MDEAGSSASGGGFRPGVDSLDEPPNSRIFLVISKYTPESVLRERFSPFGDIQDIWVVRDKHTKESKGIAFVKFARSSQACRAMEEMHGQCLGPNDTKPIKVFIAQSRSSGSHRDVEDEELTRIFVMIPKSYTEEDLREKFKVYGDIEYCSIIKNKVTGESKGLGYVRYLKPSQAAQAIENCDRSFRAILAEPKNKASESSEQDYYSNMRQEALGHEPRVNMFPFEQQSEFSSFDKNDSRGQEAISKRLSVVSRVPFTFIDDGSNATDLLRKMATQMVAAQLASMVWNNPSQQQFMQFGGSSGSQLPQIQTDVVLPSCKKKAPAETPVKERLFIVFNPHPLPLDVLEDIFCRFGNLIEVYLVSGKNVGYAKYADRISANDAIATLHGKILNGVRLKVMLADSPREESNKRQRTY
- binding [5]: no binding
- binding [7]: no binding

B9: HA-RBM45 deletion construct D3 (Δ258–279) (protein, UniProt Q8IUH3-3)
chain: MDEAGSSASGGGFRPGVDSLDEPPNSRIFLVISKYTPESVLRERFSPFGDIQDIWVVRDKHTKESKGIAFVKFARSSQACRAMEEMHGQCLGPNDTKPIKVFIAQSRSSGSHRDVEDEELTRIFVMIPKSYTEEDLREKFKVYGDIEYCSIIKNKVTGESKGLGYVRYLKPSQAAQAIENCDRSFRAILAEPKNKASESSEQDYYSNMRQEALGHEPRVNMFPFEQQSEFSSFDKNDSRGQEAISKRLSVVSRVPFTPYSNYGHGVVQYFNVASAIYAKYKLHGFQYPPGNRIGVSFIDDGSNATDLLRKMATQMVAAQLASMVWNNPSQQQFMQFGGSSGSQLPQIQTDVVLPSCKKKAPAETPVKERLFIVFNPHPLPLDVLEDIFCRFGNLIEVYLVSGKNVGYAKYADRISANDAIATLHGKILNGVRLKVMLADSPREESNKRQRTY
- binding [8]: no binding
